Test [1] addresses T1, Activity-regulated cytoskeleton-associated protein (Arc), unmodified 50 kDa, endogenous (rat (endogenous in dentate gyrus)) (UniProt Q63053).
T1 sequence: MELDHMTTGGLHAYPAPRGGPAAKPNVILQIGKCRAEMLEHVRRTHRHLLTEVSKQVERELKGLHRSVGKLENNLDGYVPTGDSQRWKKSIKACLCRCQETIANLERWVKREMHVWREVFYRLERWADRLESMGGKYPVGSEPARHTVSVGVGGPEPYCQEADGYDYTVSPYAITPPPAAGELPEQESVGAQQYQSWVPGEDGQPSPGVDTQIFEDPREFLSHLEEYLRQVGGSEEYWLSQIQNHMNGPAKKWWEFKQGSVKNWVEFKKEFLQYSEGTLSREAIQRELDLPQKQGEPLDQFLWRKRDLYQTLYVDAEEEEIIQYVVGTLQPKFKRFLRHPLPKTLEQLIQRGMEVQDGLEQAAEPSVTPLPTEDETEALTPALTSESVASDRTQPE
Kind of test: co-IP; native proteins from rat dentate gyrus lysate (HFS-treated, contralateral control or naive); antibody on protein G-agarose or protein A/G magnetic beads, 4°C, 20 mM Hepes pH 7.4, 137 mM NaCl, 1 mM EDTA, 0.5% NP-40, 20 mM NEM; immunoblot.

By UniProt entry, the sequences of proteins in these tests, tags left out.
UniProt P11275: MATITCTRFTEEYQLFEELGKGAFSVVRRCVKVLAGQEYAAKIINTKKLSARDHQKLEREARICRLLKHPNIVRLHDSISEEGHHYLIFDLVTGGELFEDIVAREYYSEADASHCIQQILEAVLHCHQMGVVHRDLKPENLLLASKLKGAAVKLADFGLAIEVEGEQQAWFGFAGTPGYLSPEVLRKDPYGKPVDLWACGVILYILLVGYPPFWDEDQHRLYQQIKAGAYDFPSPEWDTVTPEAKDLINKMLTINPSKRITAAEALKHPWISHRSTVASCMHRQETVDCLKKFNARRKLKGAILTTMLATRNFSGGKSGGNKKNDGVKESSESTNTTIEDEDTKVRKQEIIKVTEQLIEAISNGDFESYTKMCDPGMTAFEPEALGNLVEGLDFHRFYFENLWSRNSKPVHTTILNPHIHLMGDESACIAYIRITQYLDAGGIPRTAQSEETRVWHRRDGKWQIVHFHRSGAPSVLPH
UniProt P08413: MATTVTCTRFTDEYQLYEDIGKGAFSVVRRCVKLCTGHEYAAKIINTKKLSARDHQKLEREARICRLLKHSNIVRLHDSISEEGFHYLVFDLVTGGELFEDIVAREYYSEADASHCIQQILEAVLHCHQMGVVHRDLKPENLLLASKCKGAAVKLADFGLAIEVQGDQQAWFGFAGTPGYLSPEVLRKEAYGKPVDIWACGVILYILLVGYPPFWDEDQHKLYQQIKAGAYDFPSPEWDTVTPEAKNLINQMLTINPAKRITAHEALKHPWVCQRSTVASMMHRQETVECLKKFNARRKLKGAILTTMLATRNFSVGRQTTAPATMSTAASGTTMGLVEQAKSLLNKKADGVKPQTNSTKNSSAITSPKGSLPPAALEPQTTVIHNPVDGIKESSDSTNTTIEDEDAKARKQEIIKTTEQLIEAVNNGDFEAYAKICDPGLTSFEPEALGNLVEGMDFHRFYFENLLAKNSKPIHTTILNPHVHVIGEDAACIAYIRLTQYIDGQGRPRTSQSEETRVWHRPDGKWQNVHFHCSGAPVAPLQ
UniProt P45592: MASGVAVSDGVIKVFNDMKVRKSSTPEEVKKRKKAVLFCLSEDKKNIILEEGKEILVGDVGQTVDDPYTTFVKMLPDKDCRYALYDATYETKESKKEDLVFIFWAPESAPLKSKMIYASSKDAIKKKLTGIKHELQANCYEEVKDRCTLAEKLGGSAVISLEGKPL

The target in test [2] is T1, Activity-regulated cytoskeleton-associated protein (Arc), unmodified 50 kDa, endogenous (rat (endogenous in dentate gyrus)). Kind of test: co-IP; native proteins from pooled rat dentate gyrus cytoskeletal fractions (subcellular fractionation kit; HFS-treated and control); immunoblot.

No constants are given. Whether binding was seen depends on the method and setting. In cells and extracts the contact can be indirect. Some results given as binding are weak or reduced against the parent protein; the word gives no strength.

On to “calcium/calmodulin-dependent protein kinase II-alpha (CaMKIIα), endogenous (from UniProt P11275 1-478)”, for which, in test [1], the binding result is “binds”.

As for “calcium/calmodulin-dependent protein kinase II-beta (CaMKIIβ), endogenous (from UniProt P08413 1-542)”, the binding entry in test [1] was “binds”.

For “cofilin 1, endogenous (from UniProt P45592 1-166)”, the binding result in test [2] is reported as “no binding”.

Values taken from PMC5426369.
